Results published in PubChem BioAssay AID485344 (National Center for Advancing Translational Sciences (NCATS), 2010).
Screen size: about 340,000 compounds; about 6,900 (2%) were called active. Rule as the data show it: active = inhibition above about 30%; inactive = below that, where a call was filed. The entries are a selection whose mix differs from that of the whole data set. Where no call is shown, the source filed none.

These molecules were tested against D(2) dopamine receptor (Homo sapiens) (UniProt P14416) (assay: HTS Assay for Allosteric Antagonists of the Human D2 Dopamine Receptor: Primary Screen for Antagonists). Conditions: HEK293 TREx D2 cells, calcium flux, dopamine EC80; at 10 µM; stronger effect = higher value.
Sequence of UniProt P14416 (P14416 whole entry, looked up): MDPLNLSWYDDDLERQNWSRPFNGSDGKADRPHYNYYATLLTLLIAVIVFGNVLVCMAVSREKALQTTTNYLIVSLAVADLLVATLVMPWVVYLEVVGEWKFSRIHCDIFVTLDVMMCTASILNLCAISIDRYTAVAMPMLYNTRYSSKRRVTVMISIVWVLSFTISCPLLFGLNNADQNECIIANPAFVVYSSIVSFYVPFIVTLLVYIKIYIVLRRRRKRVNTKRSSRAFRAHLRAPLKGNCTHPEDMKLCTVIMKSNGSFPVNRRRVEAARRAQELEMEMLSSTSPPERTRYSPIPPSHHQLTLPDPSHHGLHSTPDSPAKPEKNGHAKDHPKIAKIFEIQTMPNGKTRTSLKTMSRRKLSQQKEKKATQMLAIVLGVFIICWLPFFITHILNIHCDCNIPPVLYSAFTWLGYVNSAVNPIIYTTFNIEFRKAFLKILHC
How it was run: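 Tetracycline-induced HEK293 TREx cells expressing D2 receptor forced-coupled to calcium signalling, loaded with no-wash calcium dye. Compounds added and calcium flux read 180 s, then dopamine added at EC80 and read a further 180 s.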
Also: 0% is about no effect.

SMILES	inhibition
O=C(c1ccc(F)cc1)N1CCC(C(=O)N2CCN(Cc3ccc4c(c3)OCO4)CC2)CC1	active: 30.5%
COc1ccc(CN2CCN(c3ccccc3OC)CC2)c(OC)c1	active: 91.2%
NNC(=O)CN1C(CN2CCOCC2)=Nc2ccc(Br)cc2C1c1ccccc1 (stereo unspecified)	active: 83%
CCOc1ccc(-c2cc(C(=O)N3CCN(c4ccc(C)cc4)C(C)C3)c3ccccc3n2)cc1 (stereo unspecified)	-23%
CCC(=O)N1CCc2cc(S(=O)(=O)NCCC(=O)Nc3ccc(OC)c(OC)c3)ccc21	-5.51%
CCOc1ccc(NC(=O)C(=O)NCCc2csc(-c3ccc(C)cc3)n2)cc1	-17.8%
Cc1noc2ncnc(NCc3ccccc3Cl)c12	-2.7%
COc1ccc(OC)c(NC(=O)c2sc3nc4c(cc3c2N)CCCCCC4)c1	-27.7%
Cc1ccc(C)c(N2CCN(C(c3ccc(F)cc3)c3nnc(-c4ccccc4)o3)CC2)c1 (stereo unspecified)	-5.9%
Cc1ccccc1CSc1cn(CC(=O)N2CCCC2)c2ccccc12	-1.07%
CCN(Cc1ccccc1)C(=O)Cn1c(=O)oc2cc(S(=O)(=O)N3CCCCCC3)ccc21	5.47%
CCOC(=O)c1cnc2ccccc2c1Nc1ccc(N2CCOCC2)cc1	-8.37%
COc1ccccc1NC(=O)c1nc(SCc2ccc(F)cc2)ncc1Cl	-6.59%
Cc1cccc(Cn2c(=O)n(-c3ccc(Cl)c(Cl)c3)c(=O)c3c(C)c(C)sc32)c1	18.7%
COc1cc(NC(=O)c2cc(-c3cccc(Cl)c3)on2)c(OC)cc1Cl	-23%
CCOCCc1nnc(NC(=O)C(=O)c2cc(C)n(-c3cccc(Cl)c3)c2C)s1	25.8%
Cc1ccc2nc(NC(=O)CSc3nccn3Cc3ccccc3)sc2c1	-17.6%
Cc1ccc(N(CC(=O)N2CCN(c3cc(Cl)ccc3C)CC2)S(=O)(=O)c2c(C)noc2C)cc1	5.67%
O=C(COC(=O)C1CCN(c2ccc(C(F)(F)F)cn2)CC1)Nc1ncc(Cl)cc1Cl	active: 34.7%
Clc1ccc(-c2nc3ccccn3c2Nc2ccc3c(c2)OCCO3)s1	-7.87%
Cc1ccc(-n2c(=O)c3cccnc3n2CC(=O)NCc2ccc(F)cc2)cc1C	0.809%
Cc1ccc(CNC(=O)CN2CCCN(Cc3ccc(F)cc3)S2(=O)=O)cc1	4.01%
CCN(CC)S(=O)(=O)c1ccc2c(c1)N(CC(=O)Nc1c(C)cc(C)cc1C)C(=O)C1CCCN21 (stereo unspecified)	5.18%
COc1ccc(NC(=O)CSc2nccn2Cc2ccco2)cc1OC	-0.315%
O=C(COc1ccccc1F)Nc1ccc(Cl)c(-c2nc3ccccc3[nH]2)c1	14.7%
Cc1cc(C)c(/C=C/c2onc(C)c2S(=O)(=O)N2CCC(C(=O)Nc3ccc(Cl)c(C(F)(F)F)c3)CC2)c(C)c1	-13.7%
